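Following 48 hours of exposure in 96-well plates, responses at five concentrations were used to interpolate endpoints linearly. GI50: concentration for 50% inhibition of growth. Definition used: TGI = concentration required for complete inhibition of growth.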
tested on: NCI-H322M lung; assay: DTP human tumour cell line panel, 48 h

| Compound | TGI [µM] | GI50 [µM] |
| --- | --- | --- |
| C/C=C/[C@@H](C(=O)OC)N1C(=O)c2ccccc2[C@H]1O | > 100 |  |
| O=c1[nH]c2[nH]c(-c3ccc(Br)cc3)cc2c2ccccc12 | > 100 |  |
| CN(C)CCNc1ccc(NCC[N+](C)(C)Cc2ccc([N+](=O)[O-])cc2)c2c1C(=O)c1ccccc1C2=O | > 25 |  |
| CCOP(=O)(OCC)/C(C#N)=C\c1ccc(OC(C)=O)cc1 | > 100 |  |
| CN(C)CCCNCc1ccc(-c2ccc(F)c(Cl)c2)o1 | 29.7 | 14.2 |
| C=C1C(=O)O[C@H]2[C@H]1CC/C(COC(=O)CCSSCCC(=O)OC/C1=C/CC[C@@]3(C)O[C@H]3[C@H]3OC(=O)C(=C)[C@@H]3CC1)=C\CC[C@@]1(C)O[C@@H]21 | 5.8 | 2.11 |
| O=C1CCC2(c3ccc(F)cc3)Nc3ncccc3N12 (stereo unspecified) | > 100 |  |
| O=C(/C=C/c1ccc(Br)cc1)c1ccc(NCc2nc3ccccc3[nH]2)cc1 | > 90.4 |  |
| NC1C(O)C(O)C(CO)OC1n1cc(F)c(=O)[nH]c1=O (stereo unspecified) | > 100 |  |
| COC(=O)C1=C(C(=O)OC)C2(CCCCCC2=O)OC1=O (stereo unspecified) | > 100 |  |
| ClCCn1cnc2c(SCc3ccccc3Cl)ncnc21 | > 100 | 17.9 |
| COC1(OC)CC(CO)(CNc2nc(N)nc(Cl)c2C=O)C1 | > 100 |  |
| C=C1C(=O)O[C@H]2[C@H]1CC/C(COC(=O)CCCC(=O)OC/C1=C/CC[C@@]3(C)O[C@H]3[C@H]3OC(=O)C(=C)[C@@H]3CC1)=C\CC[C@@]1(C)O[C@@H]21 | 40.9 | 9.92 |
| O=C1C(=Cc2cccs2)C(=O)N(CCc2ccccc2)S(=O)(=O)N1CCc1ccccc1 | > 50 |  |
| COC(=O)C(Cc1ccc2c(c1)CCCC2)Cc1cc2c(cc1C(O)OC)CCC2 (stereo unspecified) | > 100 |  |
| CC(=O)C1C(=O)C(=O)N(c2ccc(Cl)c(Cl)c2)C1=O (stereo unspecified) | > 100 |  |
| CCCNc1[nH]c(C(=O)c2ccccc2)c(N)c1C(=S)Nc1ccccc1 | > 100 |  |
| COc1ccc(OC)c2c1C(=O)C(=O)C(Cl)=C2O | > 100 |  |
| C/C=C1\C(=O)O[C@H]2C/C(C)=C/CC/C(C)=C/CC[C@@]3(C)O[C@@H]3C[C@@H]12 | > 100 |  |
| CN1c2ccccc2NC(CC(=O)O)C2CC=CN21 (stereo unspecified) | > 100 |  |
| CCCCCCCCCCC(O)CCCCCCC(=O)O (stereo unspecified) | 56.7 |  |
| CN1CCN(C(=S)N(C(=O)c2ccco2)C2CCCCC2)CC1 | > 100 |  |
| CC12OC3(C)OC(=O)C(c4ccccc4)(O1)C3(C)O2 (stereo unspecified) | > 100 |  |
| Cc1cc(C)n(C(=O)CSc2nc3ccc(I)cc3c(=O)n2Cc2ccccc2)n1 | > 100 |  |
| CCC(=O)OC1CCC2C3CCC(=O)OC3C(C)(CCC(=O)O)CC12C (stereo unspecified) | > 100 | 10.2 |
| COc1ccc2c(ccc3c(C(=O)NCCN(C)CCNC(=O)c4cn(C)c5c4ccc4cc(OC)ccc45)cn(C)c32)c1 | 7.26 |  |
| CC(=O)NC(CC(C)C)C(=O)NC(CC(C)C)C(=O)NC(C=O)CCCN=C(N)N (stereo unspecified) | > 100 |  |
| CCOC(=O)c1nnn(-c2no[n+]([O-])c2-c2ccc(OC)cc2)c1COc1cccc2cccnc12 | 23.8 | 11.4 |
| COc1ccc2nc3ccccc3c(NCc3ccc(Cl)cc3)c2c1 | 5.7 | 2.18 |
